From ChEMBL document CHEMBL4888484, “Replenishing the malaria drug discovery pipeline: Screening and hit evaluation of the MMV Hit Generation Library 1 (HGL1) against asexual blood stage Plasmodium falciparum ,using a nano luciferase reporter read-out” (2022)
The campaign covered roughly 150,000 compounds. About 540 (0.36%) showed an effect of 50% or more. The list shows a part of the results.

What follows are molecules tested on Plasmodium falciparum (assay: Primary screen in NF54 nanoGlo assay, in single point, at 2uM, 72h; a lower Z score goes with more inhibition). Conditions: timepoint 72 hour.
Format: functional, Erythrocyte

SMILES	% Inhibition [%]	Z score
CC(NC(=O)c1ccc(=O)n(C)c1)C1CC1c1ccccc1 (stereo not given)	-5	0.75
Cc1cc(Cl)ccc1-n1nc(C)c([C@@H]2C=C[C@@H](NC(=O)CCC(=O)O)C2)c1C	22	-2.44
Cc1ccc(C(=O)N2CCN(C(=O)NC[C@H](C)c3nccs3)CC2)cc1	-11	1.09
CC1(C)CC(O)(C(=O)Nc2ccc(CCS(C)(=O)=O)cc2)C1	-6	1.17
COc1ccc(-c2nnc(-c3nc(NCc4ccc5c(c4)OCO5)c4ccccc4n3)o2)cc1	-7	1.27
CC1(NCCOC2CCCCO2)CCOC1C1CC1 (stereo not given)	-10	1.49
CC(C)N1CCCC(CNC(=O)NC2CCCc3occc32)C1 (stereo not given)	-3	0.52
Cn1c(=O)c2c(c3ccccc31)OC(C)(CO)C(O)C2 (stereo not given)	-6	0.78
COCCCNCCOCCOc1cc(C)c(Cl)c(C)c1	3	-0.64
COC(CN1CC[S@+]([O-])C(C)(C)C1)OC	-13	1.81
CCN(C[C@H]1COc2ccccc2O1)C(=O)c1ccc(Cl)o1	-11	0.96
Cn1c(CO)nnc1C1CCN(C(=O)c2cccc(-c3ccccc3F)c2)CC1	-5	0.93
O=C(Nc1nnc[nH]1)c1csc(S(=O)(=O)N2CCc3ccccc3C2)c1	-15	1.97
CCOC(=O)CCNC(=O)c1cc(C[C@H](C)c2ccccc2)no1	-18	3.28
O=C(CCOC1CCOCC1)N(c1ccccc1)C1CCCCC1	3	-0.3
COCCCC1(CN(C)Cc2cc(C)on2)CCC1	7	-1.1
CNC(=O)c1ccc(CNC(=O)N2CC(O)C2)cc1	-4	0.71
N#Cc1cc(C(=O)Nc2ncccc2-c2ccccc2)ccc1F	14	-1.8
COc1ccc(C)cc1NC(=O)C12CCC(C)(C(=O)C1=O)C2(C)C (stereo not given)	-5	0.66
CC(C)c1cc(C(=O)N2CCn3c(C(N)=O)cnc3C2)cs1	-7	1.24
CCc1c(C)nn(-c2cccc(C(=O)NCCN3CCCOC3=O)c2)c1O	-15	2.57
Cc1csc(CN(C)c2ccnc(N(C)C)n2)n1	-14	1.95
CCOC[C@H](C)OC(=O)c1csnc1C	-12	1.66
CCNc1ccc(Cl)cc1C(=O)N1CC[C@H](c2cnn(C)c2)C1	-1	0.25
CCOc1cc(Cl)ccc1CNC(=O)N1C[C@@H](c2nc(C)no2)O[C@@H](C)C1	-2	0.24
Cc1[nH]ncc1C(=O)NCc1ccccc1CN1C(=O)NC2(CCCCC2)C1=O	-1	0.19
CN(CCCn1cccn1)C(=O)[C@@]12CC[C@@](C)([C@H](O)C1)C2(C)C	-1	0.15
COc1ccccc1-c1cc(C(F)F)n2ncc(C(=O)N3CCN(c4ccc(F)cc4)CC3)c2n1	0	0.06

SMILES	% Inhibition [%]	Z score
COC[C@H]1CCCN1C(=O)c1cc(C)nc2cc(Cl)ccc12	-5	0.57
CC(Oc1ccccc1)C(=O)NC1CCCn2ncnc21 (stereo not given)	1	-0.11
CC1CCCCC1NC(=O)c1cccc(S(=O)(=O)NCc2cccs2)c1 (stereo not given)	-1	0.1
Cc1cc(C)nc(N2CCN(C(=O)c3nnn(-c4ccccc4Cl)c3C)CC2)n1	-10	1.7
Cc1ccc(Cn2ccn3nc(-c4ccc5c(c4)OCO5)cc3c2=O)c(C)c1	-6	0.92
O=S(=O)(Nc1ccc2c(c1)OC1(CCCCC1)O2)c1ccc(F)cc1F	-12	1.13
Cc1nnsc1C(=O)N1CCC=C(F)C1	0	-0.02
O=C(O)Cn1ccc([C@H]2CCCN(C(=O)c3cccc4ccccc34)C2)n1	-10	1.27
CCOC(=O)NCCc1ccc(F)cc1	-16	2.19
CCOc1ccc2c(c1)C=C(C(=O)NCc1ccccn1)CO2	-3	0.54
CCC(=O)Nc1nnc(-c2ccncc2)[nH]1	0	0
NC(=O)COc1ccccc1CN(Cc1ccc(F)cc1)C[C@H]1CCCO1	-6	0.89
COC(=O)[C@@]1(C)N[C@@H](c2ccc(OC)cc2F)[C@H]2C(=O)N(C)C(=O)[C@H]21	-18	3.36
CC[C@H](NC(=O)CCCn1cccn1)c1nc(C)c(C)s1	1	-0.16
CC(C)CCc1cc(NC(=O)c2ccnc(N3CCCC3)n2)[nH]n1	11	-1.14
O=C(CC[C@H]1CCCCO1)NCC1(N2CCOCC2)CCCCC1	-8	1.07
O=C(NC[C@H]1CCCO1)c1[nH]nnc1-c1ccc(F)cc1	-9	1.64
COc1ccc(CC2C(O)C(Cc3ccc(OC)cc3)C3CCC2N3C)cc1 (stereo not given)	38	-4.91
CCc1ncc(NC(=O)c2coc(-c3ccccc3)n2)cn1	-21	2.66
Cc1cc(CNC(=O)[C@H](C)N2CCCC2)ccn1	-10	1.37
CCC(C)CC(C)NC(=O)NCc1ccn(C(C)C)n1 (stereo not given)	-4	0.78
COc1cc2c(cc1OC)[C@@H](Nc1ncc(C(=O)O)cn1)CCCC2	1	-0.2
CNC(=O)[C@@H]1C[C@@H](n2cc(C(C)(C)NC(=O)c3ccccc3Cl)nn2)CN1	6	-1.18
CC(C)(C)[C@H]1CCc2c(sc3nc(-c4ccc(Cl)cc4)cn23)C1	8	-1.02
C=CCN(Cc1cccnc1)Cc1[nH]cnc1C	-6	1.06
O=C(O)[C@H]1CCCN1Cc1csc(-c2ccsc2)n1	-10	1.34
Cc1cc(C)c2oc(N3C[C@H](O)C4(CC4)C3)nc2c1	-4	0.75
